Laboratory results published in PubChem BioAssay AID463173 (ICCB-Longwood Screening Facility, Harvard Medical School, 2010).
Among all 52,000 compounds or so, about 1,700 (3.3%) were called active. Cut-off read from the data, not from the text of the source: active = survival mostly below about 52% (no sharp cut-off); inactive = mostly above about 56%. This is one part of the list.

Tested on: Wild type
Assay: S. aureus survival, RN4220 and DeltatarO strains – OD600, teichoic acid synthesis inhibitors, primary screen (AID 463173)
Settings: S. aureus RN4220 wild type/DeltatarO growth, OD600, 18 h, hits give low values, screened at 18.75 µg/mL (by protocol)

| Compound | survival |
| --- | --- |
| COc1ccccc1CNc1nc(-c2ccco2)nn1S(=O)(=O)c1ccc(C)cc1 | inactive: 88% |
| Clc1ccc(CN2CCc3nc(Nc4ccc5c(c4)OCCO5)ncc3C2)cc1 | inactive: 78% |
| CCOc1ccccc1CN(CCc1ccc2c(c1)OCO2)Cc1cc(OC)c(OC)cc1OC | inactive: 72% |
| CC(=O)Nc1ccc2nc(SCc3ccccc3)sc2c1 | inactive: 60% |
| CC(C)=CCC(C)(C)CNc1ccc(C)cc1 | inactive: 99% |
| CCOC(=O)N1CCC(NC(=O)c2cnn(-c3cccc(C)c3)c2C2CCN(C(=O)OC(C)(C)C)CC2)CC1 | inactive: 72% |
| Cc1ccccc1C(=O)NCc1ccc2c(c1)CCN2C(=O)c1ccccc1 | inactive: 71% |
| CCn1c(=O)c2sccc2n2c(CCCC(=O)N3CCN(c4ccccc4OC)CC3)nnc12 | inactive: 98% |
| CCn1c(SCC(=O)Nc2cccc(Cl)c2)nnc1-c1nonc1NC(C)=O | inactive: 98% |
| Cc1ccc(-c2nsc(NC(=O)c3oc4cc(C)c(Cl)cc4c3C)n2)cc1 | inactive: 90% |
| COc1ccc(CNC(=O)C(=O)NCC(c2cccs2)S(=O)(=O)c2ccc(C)cc2)cc1 (configuration not stated) | inactive: 74% |
| O=C(c1ccc(F)cc1)N1c2ncnn2C2(CCCCC2)[C@@H]2CCCC[C@@H]21 | inactive: 82% |
| COc1cc2[nH]c(=O)n(Cc3ccc(C(=O)N4CCN(c5cccc(C)c5C)CC4)cc3)c(=O)c2cc1OC | inactive: 152% |
| CCOC(=O)c1ccc(NC(=O)c2ccc3c(c2)CCN3S(=O)(=O)c2ccc(Cl)cc2)cc1 | inactive: 99% |
| CCN(c1ccccc1)C1SC(=O)N(c2ccccc2)C1=O (configuration not stated) | inactive: 97% |
| COc1ccc(CNC(=O)c2cc(Nc3ccc(OC)cc3OC)nc3ccccc23)cc1 | inactive: 86% |
| Cc1cccc(NS(=O)(=O)c2nnc(NC(=O)C3CCCCC3)s2)c1 | inactive: 48% |
| CC(CNC(=O)c1ccc(Cn2c(SCc3ccccc3)nc3cccnc32)cc1)c1ccccc1 (configuration not stated) | inactive: 69% |
| COc1ccc(CCNC(=O)Cn2nnc(-c3cccc(C(F)(F)F)c3)n2)cc1OC | inactive: 94% |
| Cc1ccc(-n2nc(CO)c(C(=O)NCCO)n2)cc1 | inactive: 86% |
| Cc1ccc(C)c(CN2C(=O)c3ccccc3Sc3ccc(C(=O)NCCCOC(C)C)cc32)c1 | inactive: 68% |
| CCOc1ccc(NC(=O)c2oc3ccccc3c2NC(=O)Cc2ccc(OC)c(OC)c2)cc1 | inactive: 72% |

| Compound | survival |
| --- | --- |
| COc1ccc2oc(=O)cc(CN3CCN(C(=O)c4ccccc4)CC3)c2c1 | inactive: 84% |
| O=C(Nc1ccc(O)c(-c2nc3ccccc3o2)c1)c1cccs1 | inactive: 85% |
| O=C(O)C1CCC(N2C(=O)C3C4C=CC(C4)C3C2=O)CC1 (configuration not stated) | inactive: 110% |
| CC(C)c1nn2c(=O)cc(COC(=O)c3ccc(NC(=O)c4ccccc4Cl)cc3)nc2s1 | inactive: 99% |
| O=C(CSc1n[nH]c(-c2ccccc2Cl)n1)N1CCN(c2ccc(F)cc2)CC1 | inactive: 73% |
| O=C1CNC(=O)N1Cc1ccc(F)cc1 | inactive: 116% |
| CCOC(=O)c1ccc(N2C(=O)c3n[nH]c(C)c3C2c2ccc(C(C)C)cc2)cc1 (configuration not stated) | inactive: 78% |
| COc1ccc(C(=O)Nc2nc3ccc(S(=O)(=O)N4CCCC4)cc3s2)cc1 | inactive: 84% |
| Cn1cc(S(=O)(=O)N2CCCC2)cc1C(=O)Nc1ccc(C(F)(F)F)cc1 | inactive: 109% |
| O=C(Nc1ccc(NC(=O)c2ccc(Br)cc2)c(Cl)c1)c1ccc(Br)cc1 | inactive: 74% |
| COc1ccccc1-c1nnc(C2CCN(S(=O)(=O)c3ccccc3)CC2)o1 | inactive: 81% |
| COc1ccc(CNc2oc(COc3cccc(C)c3)nc2C#N)cc1 | inactive: 63% |
| Cc1cc(C(F)F)n2ncc(C(=O)NCc3ccccc3)c2n1 | inactive: 108% |
| COc1cccc2cc(-c3nnc(-c4ccc(Cl)cc4)o3)c(=O)oc12 | inactive: 108% |
| CCc1nn(CC(=O)N2CCN(c3cccc(C(F)(F)F)c3)CC2)c(=O)c2cc3occc3n12 | inactive: 81% |
| COc1cccc(-c2nc(CS(=O)(=O)CC(=O)NCCCN3CCN(C)CC3)c(C)o2)c1 | inactive: 85% |
| CCCCCn1c(=O)[nH]c2cc(C(=O)Nc3ccc(OC)c(OC)c3)ccc2c1=O | inactive: 74% |
| COc1cccc(N2CCN(C(=O)Cn3cnc4onc(-c5ccc(F)cc5)c4c3=O)CC2)c1 | inactive: 127% |
| COc1ccc(C)cc1NC(=O)C1CCCN(S(=O)(=O)c2ccc3c(c2)oc(=O)n3C)C1 (configuration not stated) | inactive: 89% |
| CCOC(CSc1nnc2c3ccccc3n(CC)c2n1)OCC | inactive: 102% |
| Cc1cccc(Cn2c(SCc3ccc(C(=O)NCCc4ccccc4)cc3)nc3cccnc32)c1 | inactive: 82% |
| Cc1ccc(SCc2nc(-c3ccc(C(=O)NCc4ccccc4Cl)cc3)oc2C)cc1 | inactive: 82% |

| Compound | survival |
| --- | --- |
| CC(=O)Nc1cccc(NC(=O)C2(c3cccs3)CCOCC2)c1 | inactive: 78% |
| Cn1c(=O)c(=O)n(C)c2cc(N3CCCC3)c(NC(=O)c3ccc(C(C)(C)C)cc3)cc21 | inactive: 75% |
| COc1cccc(CNC(=O)CN(c2ccc(C(C)C)cc2)S(=O)(=O)c2c(C)n[nH]c2C)c1 | inactive: 94% |
| COc1cccc(-c2nnc3n(CCc4ccccc4)c(=O)c4ccccc4n23)c1O | inactive: 87% |
| CCOC(=O)CC(=O)CSc1nc2ccccc2c(=O)n1CCc1ccccc1 | inactive: 72% |
| Cc1ccc(C(=O)CCCn2nnc(-c3ccncc3)n2)cc1C | inactive: 92% |
| CCc1ccc(NC(=O)C2CCN(S(=O)(=O)c3c(C)noc3/C=C/c3cccs3)CC2)cc1 | inactive: 79% |
| CC(C)(C)C(=O)N1CCCC(c2nc3c(nnn3Cc3ccc(C(C)(C)C)cc3)c(=O)[nH]2)C1 (configuration not stated) | active: 50% |
| CCn1cc(C(=O)NCCOC)c(=O)c2cc(S(=O)(=O)N3CCOCC3)ccc21 | inactive: 77% |
| COc1ccc(S(=O)(=O)N(CCc2ccccc2)CC(=O)Nc2cc(C)ccc2C)cc1 | inactive: 61% |
| Cc1cccc(NC(=O)CSc2cn(CC(=O)N3CCOCC3)c3ccccc23)c1 | inactive: 93% |
| O=C(CCC1N=C2c3ccccc3N=C(SCC(=O)Nc3ccccc3F)N2C1=O)NCc1cccs1 (configuration not stated) | inactive: 85% |
| CCOC(=O)C1=C(c2ccccc2)Nc2ncnn2C1c1ccc(Cl)cc1 (configuration not stated) | inactive: 81% |
| COc1cc(OC)cc(C(=O)Nc2ccc3oc(-c4ccc(Cl)cc4)nc3c2)c1 | inactive: 90% |
| O=C(c1cccc(C(F)(F)F)c1)C1CCN(C(=O)N2CCOCC2)CC1 | inactive: 119% |
| COc1cc(Cl)c(C)cc1Nc1c2c(nc3ccccc13)CCC2 | inactive: 81% |
| Cc1nc2ccc(S(=O)(=O)N(CC(=O)Nc3ccc(Cl)cc3)Cc3ccccc3)cc2s1 | inactive: 49% |
| CCc1cccc(CC)c1NC(=O)c1c(C)oc2ccc(O)c(CN3CCOCC3)c12 | inactive: 88% |
| COc1ccc(CNC(=O)c2ccc3c(c2)NC(=O)C(CS(=O)(=O)Cc2ccccc2Cl)N3)cc1 (configuration not stated) | inactive: 49% |
| CCOc1ccccc1CNC(=O)CN1C(=O)CCn2nc(-c3cn(C)c4ccccc34)cc21 | inactive: 87% |
| O=C(c1ccc2c(c1)N(Cc1cccc(Cl)c1)C(=O)c1ccccc1S2(=O)=O)N1CCC(Cc2ccccc2)CC1 | inactive: 88% |
| CCOC(=O)c1cccc(NS(=O)(=O)c2c(C)nc3sc(C)cn3c2=O)c1 | inactive: 81% |

| Compound | survival |
| --- | --- |
| CCOC(=O)c1cnc(SC2CC(=O)N(c3ccccc3)C2=O)nc1N (configuration not stated) | inactive: 105% |
| CC(C)CCOc1ccc(Oc2nc(N(C)C)nc(N(C)C)n2)nn1 | inactive: 84% |
| COc1ccccc1-n1ncc2c(=O)[nH]c(SCC(=O)Nc3cccc(F)c3)nc21 | inactive: 74% |
| COc1ccc2c(CNCc3cccs3)c(C(=O)O)n(Cc3ccc(F)cc3Cl)c2c1 | inactive: 112% |
| CCOc1ccccc1N(C)C(=O)Cn1cnc2onc(-c3ccc(F)cc3)c2c1=O | inactive: 90% |
| CSc1cccc(N2C(=O)N(CC(=O)NCc3ccccc3Cl)c3ccccc3S2(=O)=O)c1 | inactive: 131% |
| COc1ccc(-c2nn[nH]n2)cc1 | inactive: 115% |
| Cc1ccc(NC(=O)C(Cc2ccccc2)n2cccc2)c(C)c1 (configuration not stated) | inactive: 81% |
| Cc1cc(=O)n2c(C(=O)Nc3ccc(F)c(Cl)c3)c(C(=O)Nc3cccc(C)c3C)sc2n1 | inactive: 94% |
| CCOc1ccc(C(=O)c2oc3ccccc3c2NC(=O)c2cc(-c3ccccc3)on2)cc1 | inactive: 82% |
| CC(C)Oc1cccc(C(=O)Nc2ccc(-c3nc4cc(Cl)cc(Cl)c4o3)cc2)c1 | inactive: 82% |
| Cc1cccc2sc(N(Cc3cccnc3)C(=O)Cc3ccccc3)nc12 | inactive: 81% |
| Cc1nnc(SCc2ccccc2Cl)c2cc3occc3n12 | inactive: 77% |
| CC(C)c1nnc(NC(=O)c2ccccc2)s1 | inactive: 111% |
| CCCCCn1c(=N)c(S(=O)(=O)c2ccccc2)cc2c(=O)n3cccc(C)c3nc21 | inactive: 68% |
| COc1ccc(NC(=O)CN(C)S(=O)(=O)c2ccc3c(c2)CCCN3C(C)=O)cc1Cl | inactive: 72% |
| Cc1cc(Nc2ccc(C(C)C)cc2)nc(-n2nc(C)cc2C)n1 | inactive: 57% |
| Cc1ccc(NC(=O)CSc2nc(-c3cccs3)cc(C(F)(F)F)n2)cc1C | inactive: 125% |
| COc1cc(-c2noc(-c3ccc(NC4CCCCC4)c([N+](=O)[O-])c3)n2)cc(OC)c1OC | inactive: 86% |
| O=C(NCCN1CCOCC1)c1ccc(NC(=O)C2COc3ccccc3O2)cc1 (configuration not stated) | inactive: 111% |
| O=C(c1ccc2c(c1)N(Cc1ccccc1F)C(=O)c1ccccc1S2=O)N1CCCCC1 (configuration not stated) | inactive: 89% |
